Laboratory results: the supplement of paper PMC13380429

What was measured:
Conditions in all cases: 72 h
Caco-2 [1] = assay: drug sensitivity score (DSS) for viability; higher = more toxic; extreme values may be limits of the assay
Vero E6 [2] = assay: as above
HepG2 [3] = assay: as above
U2OS [4] = assay: as above
Calu-3 [5] = assay: as above
Caco-2 [6] = assay: relative viability EC50 (midpoint between 100% and the lowest measured viability); higher = less toxic
Vero E6 [7] = assay: as above
HepG2 [8] = assay: as above
U2OS [9] = assay: as above
Calu-3 [10] = assay: as above
Caco-2 [11] = assay: cell viability relative to DMSO; higher = less toxic
Vero E6 [12] = assay: as above
HepG2 [13] = assay: as above
U2OS [14] = assay: as above
Calu-3 [15] = assay: as above

COc1ccc(-c2c(C)c(C(=O)NN3CCCCC3)nn2-c2ccc(Cl)cc2Cl)cc1
Conditions	drug sensitivity score	relative viability EC50 [µM]
Caco-2 [1]	0	–
Caco-2 [6]	–	> 10
Calu-3 [5]	0	–
Calu-3 [10]	–	> 10
HepG2 [3]	0	–
HepG2 [8]	–	> 10
U2OS [4]	0	–
U2OS [9]	–	> 10
Vero E6 [2]	0	–
Vero E6 [7]	–	> 10

cell viability [%]
Conditions	Caco-2 [11]	Calu-3 [15]	HepG2 [13]	U2OS [14]	Vero E6 [12]
1 nM	106	89.1	103	96.8	107
10 nM	99.9	99.3	112	98.6	108
100 nM	97.7	99.4	97.5	97	107
1000 nM	100	95.7	102	102	95.9
10000 nM	93.9	95.2	101	92.4	98.1
